Experimental data reported in ChEMBL document CHEMBL4888484, “Replenishing the malaria drug discovery pipeline: Screening and hit evaluation of the MMV Hit Generation Library 1 (HGL1) against asexual blood stage Plasmodium falciparum ,using a nano luciferase reporter read-out” (2022).
Out of some 150,000 compounds screened, about 540 (0.36%) showed an effect of 50% or more. Some of the results follow.

Test system: Plasmodium falciparum
Test: Primary screen in NF54 nanoGlo assay, in single point, at 2uM, 72h; a lower Z score goes with more inhibition
Assay type: functional, Erythrocyte
Conditions: timepoint 72 hour

Structure (SMILES) | % Inhibition [%] | Z score
CC(C)(C)OC(=O)N1CCC(c2c(C(=O)NCc3ccc(F)cc3)cnn2-c2ccc(F)cc2F)CC1 | -10 | 1.7
COc1ccccc1[C@H](CNCc1nc(C2CC2)no1)N1CCCC1 | -1 | 0.07
CCc1nn(C)cc1NC(=O)N1CCN(C(=O)c2ccc(F)cc2)CC1 | 5 | -0.74
CC1CCC2(CC1)N=C(c1ccccc1)C(=O)N2CC(=O)Nc1ccc2c(c1)OCCO2 (centres undefined) | 10 | -1.8
CC(=O)N1CCC[C@H]1C(=O)NC(C)Cn1cccn1 (some centres undefined) | 2 | -0.39
O=c1cccnn1C[C@@H](O)CCc1ccccc1 | 2 | -0.29
COc1cc(CN2CC[C@H](NS(=O)(=O)N(C)C)[C@@H](O)C2)ccc1F | -9 | 0.86
COc1cccc([C@@H]2CCCCN2C(=O)Nc2ccnn2CC(C)C)c1 | -7 | 1.26
C#CCN1CCCCC1C(=O)NCC(C)(O)c1cnn(C)c1 (centres undefined) | 4 | -0.5
CC(C)c1noc(CCCn2cnc3ccccc3c2=O)n1 | -21 | 3.06
O=C(Cc1cccnc1)NCc1cncc(-c2ccco2)c1 | 12 | -1.54
O=C(COc1cc(F)cc(F)c1)NC[C@@H](CO)c1cccnc1 | -9 | 1.55
CCc1nc(CNC(=O)NCc2ccsc2)cs1 | -9 | 1.56
CN(C[C@H]1COc2ccccc2O1)C(=O)c1ccc2c(c1)OCO2 | 0 | 0.03
CO[C@@H](CNS(=O)(=O)Cc1cc(F)cc(F)c1)c1ccsc1 | -11 | 1.42
O=C(Cn1c(-c2cncs2)nc2ccccc21)Nc1ccc2c(c1)OCCO2 | -11 | 2.17
CC(C(=O)N(C)C)S(=O)(=O)NC1CCCC2OCCC12 (centres undefined) | -13 | 2.01
Cc1csc(C(=O)N2CCC[C@H]2CO)n1 | -11 | 1.39
Cc1ncsc1C(=O)Nc1nnc(C)n1C1CC1 | 8 | -1.37
Cc1cc([C@H](Nc2ccccn2)c2ccccc2)c(NC(=O)c2ccccc2)s1 | 31 | -0.7
Cc1nc2ccccc2c(-c2ccc(Cl)cc2)c1C1=NN(C(=O)CCC(=O)O)[C@H](c2ccc(Cl)cc2)C1 | -11 | 1.67

Structure (SMILES) | % Inhibition [%] | Z score
Cc1cccc2nc(CN3CCN(S(=O)(=O)c4ccc(C(N)=O)o4)CC3)cn12 | -11 | 1.45
CCN(C(=O)c1ccc(F)c(Br)c1)c1ccncc1 | -2 | 0.19
CCCc1ccc(C(=O)Cn2ncc(C(F)(F)F)cc2=O)cc1 | -3 | 0.44
CCC(Cc1ccc(C(F)(F)F)cc1)C(=O)NC1CCOC(C)C1 (centres undefined) | -22 | 3.73
COc1ccc(CS(C)(=O)=O)cc1NC(=O)C1Cc2ccccc2C1 | -1 | 0.13
CCc1cc(C(=O)N2CCN(S(=O)(=O)N3CCN(C)CC3)CC2)ccc1O | -14 | 2.78
Cn1c2cn(-c3cccc(O)c3)c(-c3ccc(Cl)cc3)c2c(=O)n1-c1ccccc1 | -6 | 0.73
O=C(c1ccc(=O)[nH]c1)N1CCN(C[C@@H](O)Cc2ccccc2)CC1 | -3 | 0.62
CN(Cc1cnc2ccccc2c1)C(=O)CCCS(N)(=O)=O | 3 | -0.52
CN(C(=O)Nc1ccncc1)C1CCN(c2ccccn2)CC1 | 2 | -0.19
O=C(Cc1cccnc1)N[C@H]1CCCc2sccc21 | -8 | 1.1
O=C(N[C@@H]1COCC[C@@H]1OCCO)c1cc(F)c(F)c(F)c1 | 0 | 0.04
c1ccc(OCCN2CCOC3(CCCC3)C2)cc1 | -11 | 1.41
CNC(=O)[C@H]1CCN(C(=O)Nc2ccc(-c3ccccc3F)nn2)C1 | -1 | 0.09
CCCc1nc(C)cc(NC[C@H]2CCCN(S(C)(=O)=O)C2)n1 | 1 | -0.24
CCN1CCN(CC(=O)N2N=C(c3ccc(C)cc3)C[C@H]2c2ccc(C)cc2)CC1 | 11 | -1.38
CCOCC(=O)Nc1nnc(CCCc2ccccc2)s1 | -2 | 0.3
COc1ccccc1N(CC(=O)NCc1cccs1)S(=O)(=O)c1ccccc1C(F)(F)F | -1 | 0.13
COc1ccc(CNC(=O)C2CCN(c3cc4c(nn3)CCC4)CC2)c(OC)c1 | 6 | -0.78
CC(C)NC(=O)[C@H](Cc1ccccc1)NC(=O)N1CC(=O)Nc2ccccc21 | 1 | -0.1
O=C(N[C@H]1Cc2ccccc2NC1=O)c1cccs1 | -8 | 1.31
